B1: PhoQ; a variant is named by its letters at X, in order, P23837 (parent)
chain: MKKLLRLFFPLSLRVRFLLATAAVVLVLSLAYGMVALIGYSVSFDKTTFRLLRGESNLFYTLAKWENNKLHVELPENIDKQSPTMTLIYDENGQLLWAQRDVPWLMKMIQPDWLKSNGFHEIEADVNDTSLLLSGDHSIQQQLQEVREDDDDAEMTHSVAVNVYPATSRMPKLTIVVVDTIPVELKSSYMVWSWFIYVLSANLLLVIPLLWVAAWWSLRPIEALAKEVRELEEHNRELLNPATTRELTSLVRNLNRLLKSERERYDKYRTTLTDLTHSLKTPLXXLQXXLRSLRSEKMSVSDAEPVMLEQISRISQQIGYYLHRASMRGGTLLSRELHPVAPLLDNLTSALNKVYQRKGVNISLDISPEISFVGEQNDFVEVMGNVLDNACKYCLEFVEISARQTDEHLYIVVEDDGPGIPLSKREVIFDRGQRVDTLRPGQGVGLAVAREITEQYEGKIVAGESMLGGARMEVIFGRQHSAPKDE

This is one part of the list.

In the assay the parent is B1. The experiment in a line: enrichment ratio after two sorts for PhoP signalling (ratio (wild type AVST 3.29)); higher = more functional. The settings on record: with PhoP (E. coli).
Regarding YFAK, the enrichment ratio was at most 0.25. With EYCT, the enrichment ratio was at most 0.25.

Turning to SPNI, the enrichment ratio is at most 0.25. As to AQYQ, the enrichment ratio is 0.253.

For HYAC, the enrichment ratio was at most 0.25.

As for ADPV, the enrichment ratio was at most 0.25.

Take VEWI: the enrichment ratio turned out to be 12.2. The value for EIGR was at most 0.25; that for EVNS was at most 0.25; that for LQPT was at most 0.25. In the case of SCPI, the enrichment ratio is 15.2. Turning to QTCR, the enrichment ratio was at most 0.25. The value for MATF was at most 0.25. The value for IMKK was at most 0.25. With GYTW the figure was at most 0.25; with GLEP, at most 0.25; with GTDF, at most 0.25. Turning to AMKL, the enrichment ratio is at most 0.25. In the case of NMQA, the enrichment ratio is at most 0.25. With IDLW the figure was at most 0.25; with QMWQ, at most 0.25; with NDHI, at most 0.25. For the variant PLAL, the enrichment ratio was at most 0.25.

As for YMWS, the enrichment ratio is at most 0.25. Consider HQYE, for which the enrichment ratio is at most 0.25. With AQHN the figure was at most 0.25; with RTML, at most 0.25; with EAKL, at most 0.25.

For HDGW, the enrichment ratio was at most 0.25. For GCFR, the enrichment ratio is at most 0.25. For the variant WFHP, the enrichment ratio is at most 0.25. As to PWMH, the enrichment ratio is at most 0.25. With QQVI, the enrichment ratio was at most 0.25. The value for LAKF was at most 0.25.

For the variant NIDN, the enrichment ratio is at most 0.25. In the case of AGNI, the enrichment ratio was at most 0.25. With DSGD the figure was at most 0.25.

With QFSH, the enrichment ratio is at most 0.25. On to GRGK, for which the enrichment ratio worked out at 4.62. The value for EEIL was at most 0.25; that for RWPP was at most 0.25. The value for VNAP was 0.384; that for EKIF was at most 0.25; that for VQEK was at most 0.25. With KTPW the figure was at most 0.25; with KSLQ, at most 0.25.

For the variant LHEF, the enrichment ratio is at most 0.25.

On to QHFR, for which the enrichment ratio was at most 0.25.

As to ENTL, the enrichment ratio is at most 0.25. On to WLKF, for which the enrichment ratio is at most 0.25.

YEYT: the enrichment ratio was at most 0.25. With KIVC the figure was at most 0.25; with NGCI, at most 0.25. For YQTI, the enrichment ratio was determined as 0.433. With VLDY the figure was at most 0.25; with LTVG, at most 0.25. With ESRL the figure was at most 0.25; with APWA, at most 0.25. With FPLS the figure was at most 0.25; with ERAA, at most 0.25. As to VYSQ, the enrichment ratio is at most 0.25. RMSW: the enrichment ratio was at most 0.25. As for SWGM, the enrichment ratio is at most 0.25. The value for MEPP was at most 0.25. With WGAP the figure was at most 0.25. Regarding DCPD, the enrichment ratio is at most 0.25. The value for APPM was at most 0.25; that for WMTM was at most 0.25.

As to MTSC, the enrichment ratio was at most 0.25.

With NSCK, the enrichment ratio was at most 0.25. The value for QKLK was at most 0.25; that for WNFL was at most 0.25; that for LSCP was at most 0.25. The value for KTLP was at most 0.25; that for VCYN was at most 0.25. With IMII the figure was at most 0.25; with VTHR, 0.955. On to SQRL, for which the enrichment ratio was at most 0.25.

Consider PMAS, for which the enrichment ratio was at most 0.25.

As for FNQN, the enrichment ratio is at most 0.25. The value for WMDS was at most 0.25; that for NVIC was at most 0.25; that for DGSW was at most 0.25. In the case of WQLE, the enrichment ratio is at most 0.25. On to VECA, for which the enrichment ratio was 3.45. With GCKH the figure was at most 0.25; with TFPY, at most 0.25; with ACGS, 10.4. For the variant EVRE, the enrichment ratio is at most 0.25.

Regarding DFSL, the enrichment ratio came to 1.11. With VFCY the figure was at most 0.25; with SLRN, at most 0.25; with KQVC, at most 0.25. With LDLQ the figure was at most 0.25. With MPLM the figure was at most 0.25; with PMNT, at most 0.25; with QFYE, at most 0.25. IHMC: the enrichment ratio is at most 0.25.

With PQFD, the enrichment ratio is at most 0.25.

For KYCD, the enrichment ratio is at most 0.25.

As to VCQI, the enrichment ratio is at most 0.25. The value for FMVH was at most 0.25. With KCGK, the enrichment ratio was at most 0.25. The value for HEHP was at most 0.25; that for AAIM was 10.3; that for ANLG was 4.86.

For MPKT, the enrichment ratio was at most 0.25. The value for KQYF was at most 0.25; that for MCFR was at most 0.25. With AVCV, the enrichment ratio is 5.84. With GKKN the figure was at most 0.25; with LNMV, at most 0.25; with VERA, at most 0.25. The value for IPCA was at most 0.25; that for GRDD was at most 0.25. The value for IEER was at most 0.25. Regarding LQVG, the enrichment ratio was at most 0.25. As for PDGY, the enrichment ratio is at most 0.25. With DEFG the figure was at most 0.25; with RRQY, at most 0.25; with NNQK, at most 0.25.

As for KPHF, the enrichment ratio was at most 0.25. With TGKQ, the enrichment ratio was at most 0.25. The value for VSHH was at most 0.25; that for FKSY was at most 0.25. With PSEP the figure was at most 0.25; with KKHA, at most 0.25; with EWSP, at most 0.25. The value for VQLY was at most 0.25; that for NIQI was at most 0.25; that for LYYL was at most 0.25. With RNEN, the enrichment ratio was at most 0.25. With RLAS the figure was at most 0.25.

Take MLHH: the enrichment ratio was at most 0.25. In the case of HFED, the enrichment ratio is at most 0.25. The value for DKNA was at most 0.25.

Consider NIPR, for which the enrichment ratio is at most 0.25. Turning to DVIN, the enrichment ratio is at most 0.25.

As to SCCM, the enrichment ratio was determined as 10.8.

Regarding KCMV, the enrichment ratio was at most 0.25. With PTEA, the enrichment ratio is at most 0.25.

Regarding NLNW, the enrichment ratio is at most 0.25. With SKDQ the figure was at most 0.25. With AWAQ, the enrichment ratio is at most 0.25. The value for FGEP was at most 0.25; that for FVQL was at most 0.25; that for HNLS was at most 0.25. With PPGE, the enrichment ratio was at most 0.25. The value for LFGT was 0.261; that for IMMS was at most 0.25; that for TQMI was 6.9.

With FIWW, the enrichment ratio was at most 0.25. With EYIF the figure was at most 0.25.

These data come from a collection of fitness landscapes (doi:10.1126/science.1257360).
